{"source": "paper PMC11389873", "about": "(Free radical biology & medicine, 2022)", "binders": {"B1": {"name": "Purified recombinant human apo-IDO1 (His6-IDO1), Alexafluor 647-labelled (enzyme)", "chain": "not shown", "modifications": "Alexafluor 647 on Cys groups"}}, "biological_target": "Purified His6-tagged human heat shock protein 90 beta (Hsp90beta) (human, UniProt P08238)", "assay": "fluorescence polarisation"}
{"binder": "B1", "values": [{"measurement": "Kd", "result": "2500 ± 1800", "unit": "nM"}]}
